# Test results from the supplement of paper PMC3334620.
# In all, about 33,000 sequences were measured (“E-score (-0.5 to 0.5)”: median about -0.016, highest 2% from about 0.31 on). Some of the results follow.
# Biological target: Cst6 (UniProt P40535)
# Assay: PBM E-score (8-mer binding enrichment) (E-score (-0.5 to 0.5)); higher = stronger / more preferred TF binding; most listed sequences are background and not binding sites
# Details: protein concentration: 200 nM; construct: GST-DNA-binding domain
# How it was run: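 For each ungapped eight-base word taken together with its reverse complement, the Universal PBM Analysis Suite assigned an E-score. Binding data came from GST-tagged yeast transcription factors, applied at about 100-200 nM, on universal all-10-mer Agilent arrays made double-stranded by primer extension. Fluorescent anti-GST marked bound protein, and scans were normalised with masliner.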
row,Sequence,PBM E-score
1,ATTGGCCA,-0.114
2,TGGTGCAA,-0.0475
3,GGAGTATA,0.0353
4,GACCTCCA,-0.089
5,TCCGGCGA,-0.0619
6,CCGGACAA,-0.147
7,AACGCGGC,0.261
8,CGGTCTTC,-0.0638
9,GTGATCGA,0.0857
10,AACAAGGG,-0.057
11,ATATTTCA,0.155
12,CTCCCAAA,-0.0435
13,AAGATCTG,0.0483
14,CGCATCAA,0.141
15,AAAATGGT,0.154
16,AAACAAAC,0.154
17,GGCTCATA,-0.038
18,CATTCCGA,0.0913
19,CTGATAGC,-0.126
20,CAAATCAG,0.122
21,GGGGCCCA,-0.204
22,TACGACGA,0.0201
23,ACCCCAAA,-0.0546
24,CCTAAATA,0.0813
25,AGCACCTC,-0.2

row,Sequence,PBM E-score
1,ACTCAACG,0.0233
2,ACTTAAGG,0.0959
3,ACGGCGCT,0.251
4,ATAGGTGG,-0.146
5,ATTGACCC,-0.0592
6,TATCGGGA,-0.165
7,AGTTAGTG,0.0727
8,AAATAGAT,0.272
9,TGCCAACA,-0.0662
10,AAACCGTG,0.11
11,ACTTTTGG,0.0364
12,TATCCATA,0.077
13,CCTGCAGC,-0.1
14,CCGTTACA,0.0733
15,GCCGCATA,0.276
16,TTATAGAA,0.162
17,CGCCACAG,-0.0862
18,AGGCCCAA,-0.0687
19,CCGAAATA,0.262
20,CCTGTTTC,-0.0927
21,ATTGAAAG,0.0394
22,AGCAGTCA,-0.188
23,TGTAGGAA,-0.0644
24,ATGTCCTA,-0.0924
25,ACATCCCT,-0.0808

row,Sequence,PBM E-score
1,AAATACCG,0.02
2,CACGTCCC,-0.216
3,AGGTTGAA,0.0673
4,AAGAGCTG,-0.123
5,CTCAATTC,0.072
6,CTCACGAG,-0.148
7,AGAGGTTC,-0.11
8,ATCATGCA,0.109
9,GGTGTTAA,-0.0066
10,GCCGGTCA,-0.0239
11,GCGAAACA,-0.0193
12,ACCATTGC,0.0812
13,CGAGTTAC,0.174
14,CCTCTTGA,0.041
15,GGCCTGTA,-0.336
16,GTGGGGAA,0.134
17,AAGGCCAT,-0.04
18,CTGCGCAC,-0.176
19,GTGTGTAA,0.228
20,AGAACCAC,-0.112
21,ACGATCGT,0.0108
22,CAACTTTA,0.255
23,GAAACGGC,0.282
24,CCAAGCAC,-0.0642
25,GCCCGAGA,-0.163

row,Sequence,PBM E-score
1,GATCACAA,0.143
2,ATATACAA,0.221
3,TATCAAAA,0.14
4,ACTACATC,0.189
5,CTCGTCAC,0.349
6,GCTAAGCA,-0.094
7,CGTTGTAA,0.0823
8,ACCCTGGC,-0.116
9,GTAAGATA,0.196
10,ATATGGTA,0.115
11,AACGTAGT,0.133
12,CACATTGA,0.141
13,GGACGAAC,-0.0196
14,CCGAATAC,0.118
15,AAATAATG,0.312
16,ACCGCGTC,0.149
17,TATCGTAA,0.285
18,AAAAGCAG,0.0567
19,GGTGATAC,-0.0477
20,ATTAGCAA,0.209
21,AAAGGTTA,-0.0675
22,ACCGCCGC,0.127
23,CTAACCTC,-0.107
24,GAGGCCCC,-0.334
25,AGGCCCAT,-0.231

row,Sequence,PBM E-score
1,AAAGGAAC,0.0656
2,GCGCCCAA,-0.0825
3,TCTATAGA,0.0271
4,CCGAGAGC,-0.227
5,GCATGGCA,0.103
6,CACCGCAC,-0.106
7,GCGAAACC,0.0382
8,ACGGGTAA,-0.0372
9,CAGCTTGG,-0.0785
10,CATGAACG,0.0345
11,AGTCTCAC,-0.0416
12,GGGGGCGA,-0.328
13,CTGCGTAC,-0.171
14,CCCAAGCC,-0.241
15,AATCGATT,0.0818
16,CAGCCACA,-0.0939
17,CTGGCACC,-0.256
18,CCAGATGA,0.131
19,TAGGTCCA,-0.114
20,TATCTTAA,0.17
21,ATTATCAC,0.271
22,AATACGTA,0.344
23,ATAAGGAC,0.0867
24,CAACGGTA,-0.141
25,ACACGTGC,-0.0137

row,Sequence,PBM E-score
1,ACGGGAGC,-0.124
2,CACAGCAG,0.00781
3,ACCAAGGC,-0.181
4,CGCAAACG,0.0433
5,CAAACCGG,-0.149
6,CGGCGCTA,0.147
7,GCAGATGA,0.0159
8,CCTATGTA,-0.102
9,AGCAGGTA,-0.133
10,GTATAGAC,-0.0367
11,AGGGTAAC,-0.204
12,CGATGAGA,-0.048
13,ATTAAATA,0.267
14,ATACAGGC,-0.121
15,CCTGCAAC,-0.141
16,ATTATCAG,0.125
17,AGATGTAC,-0.136
18,ACCAGGTC,-0.218
19,AGACGAAC,0.0131
20,CTCTACAC,-0.225
21,CATGTGGA,-0.0382
22,ATCACACC,0.0827
23,GGGCTCAC,-0.19
24,ACGAATCT,0.09
25,GCCACAAA,0.0529

row,Sequence,PBM E-score
1,CAGACCGA,-0.166
2,CTTGATCA,0.126
3,CGATTCAA,0.024
4,GCTCTGAA,-0.0691
5,ATCCGGGA,-0.225
6,ATAGTCAC,0.194
7,AGTGTCCG,-0.0931
8,AGGATATC,-0.0519
9,AAGGTCCC,-0.148
10,ACGGTAAC,0.21
11,ACAGGTTC,-0.245
12,CGATACCG,-0.274
13,AAGTAGGA,0.0475
14,CCCATCGA,0.0183
15,GTAAGTGA,0.234
16,CGATATGA,0.156
17,ACTTGCTA,-0.191
18,CATTAAGA,0.0481
19,AGCAGCCC,-0.244
20,ACATAAAG,0.0758
21,GGGCTCTA,-0.184
22,TATGCAGA,-0.064
23,ATGCACAG,-0.0515
24,AAAACAGG,-0.159
25,CAGTCAAC,-0.143

row,Sequence,PBM E-score
1,CAGTTTTC,0.18
2,AGCCTGAG,-0.117
3,AGACAACC,-0.0433
4,AATGTCAA,0.102
5,GGTCGGAA,-0.135
6,AGGACGTA,-0.126
7,ATGAGTCG,-0.125
8,GACAGCTA,-0.0871
9,ATTCTGGG,-0.152
10,CCCGCGGA,-0.0408
11,AAACCAAG,0.0861
12,CATACTCC,0.0426
13,AGTTGCTG,-0.0492
14,AAGATACG,0.147
15,CGCATAAG,0.102
16,GCTGAAAC,-0.0238
17,AATGCTGG,-0.129
18,AGACTCGC,-0.273
19,ACGGGGCA,0.0661
20,AATTACTA,0.143
21,CATATTAC,0.261
22,AATTGCTA,0.00596
23,CTCCTCCC,-0.358
24,ACCCCCGT,-0.275
25,CCTTACGC,0.0971

row,Sequence,PBM E-score
1,GATCGTTA,-0.128
2,CCAGGCGA,-0.317
3,ATCAGCTG,0.128
4,CTTCCGAA,-0.11
5,TCCTAAAA,0.0266
6,CACCAGAA,-0.0422
7,AGGACACA,0.211
8,GATGACGA,0.463
9,CGGCCACC,-0.0849
10,TAACCCCA,-0.302
11,GCATCGAC,0.0107
12,CCAATGAC,0.314
13,CCCTTGCA,-0.275
14,GGAGACGA,-0.0641
15,CATACGCG,0.034
16,GCCATGAA,-0.0843
17,ATGCGGCC,0.0608
18,GTCAGACA,0.0345
19,ATACCAAC,0.118
20,AATTGCTG,0.226
21,ACACGGCT,0.266
22,GATCCGGA,-0.169
23,ATAGCATC,0.107
24,AATTTCGC,-0.0459
25,ATACGGCG,0.36

row,Sequence,PBM E-score
1,ATATTTAG,0.221
2,TGGGGCAA,-0.247
3,AGGAATAC,-0.145
4,CGGGTATC,-0.098
5,GCGGTCGA,-0.0118
6,ATACACAG,-0.173
7,GGGTTATA,-0.167
8,CATAAAGC,-0.103
9,CGCCAGAA,0.00857
10,CATTCCAA,0.0936
11,TTAGGAAA,0.106
12,CTAGAAGA,-0.00683
13,AAGCTCCA,-0.0294
14,ACCGGCCC,-0.28
15,ACAGTGTC,-0.175
16,TGTCAAAA,0.163
17,AATTGTAT,0.0983
18,ATTTTGGA,0.235
19,CACTTCCC,-0.00973
20,AAAAAAGG,0.00277
21,CTGAAATC,0.0366
22,CTCTAGGA,-0.194
23,CTTCACCA,-0.141
24,ACACTCAG,0.0333
25,AGGAAATA,0.233

row,Sequence,PBM E-score
1,CCGTACGA,0.104
2,CCGGCCGC,-0.237
3,CCCACGTA,-0.0899
4,AGTCATGC,-0.0259
5,CAGGACAA,0.0953
6,GAAAATCA,0.198
7,AGTACTGC,-0.173
8,ATGTGCTG,0.111
9,GTCTGTGA,0.0571
10,CCAATCAC,-0.147
11,TCTAACAA,0.0676
12,TCCCGGCA,-0.268
13,CAAGAAAG,0.0874
14,CTTGTATA,-0.019
15,CCACCCCC,-0.361
16,AGGAACCA,-0.199
17,AATTCTAT,0.0911
18,CCTTTGCG,0.17
19,ACTGAATC,-0.0232
20,GAGTCGTA,-0.0876
21,GGCCCGTA,-0.0941
22,GTTGTGTA,0.0549
23,AGCCCTGA,-0.124
24,AGGAATCA,0.0273
25,CAATCACC,-0.00458

row,Sequence,PBM E-score
1,AAGATGAC,0.345
2,AGATTGAG,0.228
3,GGAAGTGA,0.119
4,CGCGCGCC,0.209
5,CAAAACGC,0.211
6,ACTAAATC,0.246
7,CAGTATAG,0.131
8,AAAGATGA,0.292
9,CACACGGC,0.293
10,GCAATTGA,0.234
11,TCATCCAA,0.271
12,AATGAACT,0.106
13,CTGTTAGC,-0.136
14,GCGGGAGA,-0.308
15,CGTGTTTA,0.136
16,CGCGGACA,-0.00614
17,CGCTTTAC,0.0111
18,AACGGGGA,-0.0597
19,GCCAAGGA,-0.0351
20,GCCTGCGA,-0.283
21,AATTAGGA,0.0183
22,AATTTTTA,0.228
23,AACACCCG,0.143
24,ACACCGCA,-0.114
25,CCCGCAAG,-0.33

row,Sequence,PBM E-score
1,TGAGTGCA,-0.0487
2,AAGAAGGA,-0.0423
3,GAGTCAAC,-0.0954
4,AAGGATAT,0.187
5,ATTAAGGG,-0.0594
6,GACACCGC,-0.259
7,CCGCAGAC,-0.106
8,CGTTTTTC,0.123
9,ATAAGTAC,0.0427
10,ACAGAGGC,-0.168
11,CCAAGGCG,0.0308
12,ACCCGTCT,-0.174
13,ACGGAGAG,-0.181
14,TCCTCACA,-0.0493
15,TACTAAAA,0.209
16,GAGAGTGA,0.0981
17,AAATGTCA,0.216
18,CGGAATAC,0.102
19,ACACTCTA,0.152
20,AGGTCTCA,-0.0465
21,ATCGTACA,0.0963
22,CATCCTAG,-0.00483
23,AGGAAGAG,-0.148
24,CTTCGACA,-0.109
25,AGAACGAT,-0.036

row,Sequence,PBM E-score
1,ACTAGTAG,0.072
2,ATGCGCAC,0.14
3,CACTCTTA,0.0713
4,GACACCTC,-0.105
5,GCCCGGGC,-0.165
6,GCGTGTCA,0.137
7,ACTCCAGA,-0.104
8,CTTGAAAC,0.043
9,CCAGCCCA,-0.413
10,CCTGAGGC,-0.177
11,CAAACGAC,0.0614
12,AAAGCGTG,0.0399
13,AGGGCGAA,-0.168
14,GATCGCCA,-0.131
15,TGTCGGAA,-0.148
16,GACCGGAA,-0.0506
17,CATCCATG,0.144
18,GGGAAACA,0.003
19,CCGAACGA,-0.0554
